Assay results taken from PubChem BioAssay (Tox21).
The inconclusive results got no clear call from the source; some entries with a clear call stand among them for comparison. Potencies beside an inconclusive call are fits to weak or partial responses and may not hold up. Calls of active or inactive are those of the source. Calls follow the shape of the dose curve; as a rule, active = well fitted activation curve with a large enough effect in the signal ratio in the repeat runs (not every such curve was filed as active); inconclusive = weak or mixed curves; inactive = flat fitted curve, though single readings scatter; the % refers to the signal ratio.

Assay: qHTS assay to identify small molecule agonists of H2AX (AID 1224845)
Conditions: CHO-K1 phospho-H2AX Ser139 HTRF, 3 h; activation (H2AX phosphorylation): at 154 µM (top of the series) unless noted
Method in brief: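 Wild-type CHO-K1 cells plated overnight, then exposed 3 hr at 37C to compounds at 15 concentrations (0.76% DMSO). Lysed, then HTRF anti-pH2AX(S139)-cryptate/anti-H2AX-d2 detection after 24 hr at room temperature; emissions 665 and 620 nm.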
% is scaled to controls: 0 for no effect and ±100 for the full control effect; potency is read from the fitted curve at half-maximal effect; tags tell the direction and shape of the fitted curve or compound fluorescence and quenching.

Row | Compound | Potency | activation (H2AX phosphorylation)
1 | CCOc1ccc(NC(=O)CC(C)O)cc1 (centres undefined) | inactive | –
2 | O=C(CCc1ccc(O)cc1)c1c(O)cc(O)cc1O | – | inconclusive: 13.6%
3 | CC(CCc1ccc(O)cc1)NCCc1ccc(O)c(O)c1 (centres undefined) | inconclusive: 49.2 µM | –
4 | CC(CN)CCCN (centres undefined) | – | inactive: -2.33%
5 | OCC1CC=CCC1 (centres undefined) | inconclusive: 101 µM [rising, partial curve, poor fit] | –
6 | Oc1cccc2[nH]ccc12 | inconclusive: 55.2 µM | –
7 | CC(=O)Oc1cccc(O)c1 | – | inactive: 1.46% [at 70.9 µM]
8 | CC(=O)Nc1ccc2c(c1)Cc1cc(NC(C)=O)ccc1-2 | inconclusive: 40 µM [rising, full curve, poor fit] | –
9 | O=C(O)CO | – | inactive: 2.72%
10 | CCC(C)SSC(C)CC (centres undefined) | – | inactive: -2.64%
11 | CCOC(=O)Oc1ccc(CCNC(=O)[C@H](CCSC)NC(C)=O)cc1OC(=O)OCC | inconclusive: 43.8 µM [falling, partial curve] | –
12 | O=C(O)/C=C/c1ccc(O)c(O)c1 | inconclusive: 36 µM [cytotoxic, partial curve] | –
13 | CC(C)Cc1ccc(C(C)C(=O)OCc2ccccn2)cc1 (centres undefined) | – | inconclusive: 6.62% [at 70.9 µM]
14 | CC(CO)(CO)CO | – | inactive: -0.156%
15 | Cn1c(N)c(N=O)c(=O)n(C)c1=O | inconclusive: 65.6 µM [falling, partial curve] | –
16 | Cc1ccc([N+](=O)[O-])cc1S(=O)(=O)O | inactive | –
17 | Nc1nc2c(ncn2COCCO)c(=O)[nH]1 | inconclusive: 22 µM [activator, partial curve] | –
18 | CC(C)(C)OC(=O)N1C[C@@H](F)C[C@H]1C(=O)O | inconclusive: 117 µM [activator, single point] | –
19 | C[C@H]1NCc2cc(-c3ccc4c(=O)c(C(=O)O)cn(C5CC5)c4c3OC(F)F)ccc21 | – | inactive: 4.25% [at 31.6 µM]
20 | O=C(O)c1cc(C(=O)O)cc(S(=O)(=O)O)c1 | inconclusive: 113 µM [rising, single point] | –
21 | CCC/C=C/C=O | inactive | –
22 | Nc1ccc(C(=O)O)c(O)c1 | – | inactive: 0.284% [at 70.9 µM]
23 | COc1cc(/C=C/c2ccccc2)oc(=O)c1 | – | inactive: -2.87%
24 | C[C@]12CC[C@@H]3c4ccc(O)cc4CC[C@H]3[C@@H]1CC[C@@H]2O | – | inconclusive: 6.91%
